Data on 23 sequences can be found in article PMC7819943, “Rice protein-binding microarrays: a tool to detect cis-acting elements near promoter regions in rice”.

The other results are listed elsewhere or left out.

In the assay the target is T1, OsWOX13 (Oryza sativa, UniProt Q5QMM3 1-267).
T1 sequence: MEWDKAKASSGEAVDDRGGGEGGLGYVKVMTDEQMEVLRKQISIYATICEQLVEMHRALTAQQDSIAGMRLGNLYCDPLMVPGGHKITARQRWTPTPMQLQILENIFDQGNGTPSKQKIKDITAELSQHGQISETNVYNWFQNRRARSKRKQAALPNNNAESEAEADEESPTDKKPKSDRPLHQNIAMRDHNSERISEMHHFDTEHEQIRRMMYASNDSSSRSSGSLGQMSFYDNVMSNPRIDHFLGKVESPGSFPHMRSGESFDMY
The assay can be described thus: protein-binding microarray (RPBM); PBS, 2% BSA, 51.3 ng/ul salmon testes DNA, 50 uM zinc acetate, 200 nM TF, 25 C, 1 h; high values mean tight binding. The note with it: protein: recombinant; tags: N-terminal polyhistidine and DsRed monomer fusion (pET32a); label: CyDye5-dUTP incorporated in the synthesized complementary strand; 3' TTTTT single-stranded linker to array surface; dsDNA, one strand shown. The method, boiled down: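 Binding signal is reported as fluorescence intensity per feature (arbitrary units) from an Axon 4000B scanner. Incubation used 200 nM of each Ni–NTA-purified, N-terminally polyhistidine- and DsRed-fused transcription factor from E. coli BL21-CodonPlus on a double-stranded custom Agilent array for 1 h at 25 °C, with 50 µM zinc acetate in the buffer, followed by washing.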
Take “TTAACTTGCAGTCCTAATTGTAACTGCATTTGATCTCAATCGGAGTCACCTAGTGCAG”: the binding signal is 3380 fluorescence intensity (a.u.).

As for “AGAGTTTCTGATTGGATAACTCTTGGAAATTCATGCTGCCCGGAGTCACCTAGTGCAG”, the binding signal was 22000 fluorescence intensity (a.u.).

Consider “GTGCTCTAATTATTTGTATCTTACAGATAGATGACAGAGCCGGAGTCACCTAGTGCAG”, for which the binding signal was 19100 fluorescence intensity (a.u.).

Turning to “AATGATAATTACGTAAATTATTTGAATGACACGAATAGTTCGGAGTCACCTAGTGCAG”, the binding signal is 28000 fluorescence intensity (a.u.).

In the case of “TCGCTTAATTAATTTGGATTTGGATGCGGATCCCTCGCCTCGGAGTCACCTAGTGCAG”, the binding signal is 56000 fluorescence intensity (a.u.).

With “GGAATTGTTAATTACTATGTTTGGAGCTCTGGTGACCGATCGGAGTCACCTAGTGCAG”, the binding signal is 17200 fluorescence intensity (a.u.).

Turning to “AGTAAGGCTAATTAATACTATAATATCTTATTGGCATCCTCGGAGTCACCTAGTGCAG”, the binding signal is 3370 fluorescence intensity (a.u.).

Take “CTAGATTGTTTTACAGTTTCAACATAAACACCAGAAGGCTCGGAGTCACCTAGTGCAG”: the binding signal was 26300 fluorescence intensity (a.u.).

For the sequence “TGCACAGATTAATCTTAAATGGTTTATAAGAATTACAGCTCGGAGTCACCTAGTGCAG”, the binding signal was 5500 fluorescence intensity (a.u.).

In the case of “GCAAAATTACTGCTCGTCAATATATTAGAAGAAAATAGTTCGGAGTCACCTAGTGCAG”, the binding signal was 3980 fluorescence intensity (a.u.).

As to “TGTTTGCATGATTTTGTAATTGTGTTGTATCCGGTTTTCCCGGAGTCACCTAGTGCAG”, the binding signal is 5700 fluorescence intensity (a.u.).

Regarding “ACGACTCTTAATTACTGTAATATGGAAATATGGTTGTATGCGGAGTCACCTAGTGCAG”, the binding signal is 13000 fluorescence intensity (a.u.).

In the case of “CCACGAATAAATTTGCAATATTTAGCGGTGATATAGATGCCGGAGTCACCTAGTGCAG”, the binding signal is 7470 fluorescence intensity (a.u.).

Take “GTTACTAATTAAGTTGCATCATTGTCCATGGTTGTACATCCGGAGTCACCTAGTGCAG”: the binding signal is 18300 fluorescence intensity (a.u.).

Turning to “CAAAATTATCTAATTGATGACTATTTCTAAATACACATCACGGAGTCACCTAGTGCAG”, the binding signal is 41800 fluorescence intensity (a.u.).

With “TTAATAATCATTGTTTTCTATAAATCCCAATGAATTTACACGGAGTCACCTAGTGCAG”, the binding signal was 3980 fluorescence intensity (a.u.).

Take “ATAATTAATTGCCTCACTAACCTCTGCTTCTTCTTAAGGTCGGAGTCACCTAGTGCAG”: the binding signal is 40100 fluorescence intensity (a.u.).

On to “ACTAATATGGATAGATTGAAACATCAAGAACTAAACTGAGCGGAGTCACCTAGTGCAG”, for which the binding signal is 29900 fluorescence intensity (a.u.).

“ACAATTTGATTGCTTCCTTTCAACATTGTGGTTGGTGATCCGGAGTCACCTAGTGCAG”: the binding signal was 30500 fluorescence intensity (a.u.).

“AAAATATTCAATTAAATTAATGAACATCTATATCTGAACCCGGAGTCACCTAGTGCAG”: the binding signal is 16800 fluorescence intensity (a.u.).

For the sequence “GACGAATCTTTTAAGCCTAATTACGCCATGATTTAGCAATCGGAGTCACCTAGTGCAG”, the binding signal is 4130 fluorescence intensity (a.u.).

Consider “ATAATTAATTAAGAGTATCCAAAGGCAAGACACATATAGTCGGAGTCACCTAGTGCAG”, for which the binding signal was 17000 fluorescence intensity (a.u.).

Consider “ACACTAATAGGTCATGTCCATTTCCATCCCATTTCCATTGCGGAGTCACCTAGTGCAG”, for which the binding signal is 7050 fluorescence intensity (a.u.).
